Experimental findings from PMC12820563 are described below.

Some of the results follow. The list includes weakly bound sequences.

For the experiment, the target named is T1, MBP-FoxP3dN (UniProt Q99JB6).
T1 sequence: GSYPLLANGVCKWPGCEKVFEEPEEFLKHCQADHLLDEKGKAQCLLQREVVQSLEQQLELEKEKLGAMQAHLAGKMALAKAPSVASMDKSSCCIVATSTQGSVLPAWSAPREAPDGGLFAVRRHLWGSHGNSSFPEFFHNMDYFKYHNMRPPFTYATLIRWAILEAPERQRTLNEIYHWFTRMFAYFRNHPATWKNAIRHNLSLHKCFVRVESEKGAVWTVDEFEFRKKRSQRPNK
Briefly: PD-seq (MBP pull-down with sequencing). The following applies: 20 mM Tris-HCl pH 7.5, 100 mM NaCl, 1.5 mM MgCl2, 0.4 uM protein, 0.1 uM dsDNA library, 30 min, room temperature, amylose pull-down; high values mean tight binding; double strand, one strand shown.
On to “GATGATTGTTCTCCCAGCTGATGAATTCATAGACTCGAGTAAACAAATTTTCCTAATCTTTCTGTTCAAGCGCCATCTAC”, for which the binding signal (RPM ratio (pull-down/input)) was 0.317.
Take “GATGATTGTTCTCCCAGCTGATGAATTTCAGCACTCGAGTAAACAAATTTTCCTAATCTTTCTGTTCAAGCGCCATCTAC”: the binding signal (RPM ratio (pull-down/input)) turned out to be 0.453.
To “GATGATTGTTCTCCCAGCTGATGAATTCTACTTCTCGAGTAAACAAATTTTCCTAATCTTTCTGTTCAAGCGCCATCTAC” belongs 0.349; to “GATGATTGTTCTCCCAGCTGATGAATTCTACTCTTCGAGTAAACAAATTTTCCTAATCTTTCTGTTCAAGCGCCATCTAC”, 0.307; to “GATGATTGTTCTCCCAGCTGATGAATTAACGGCTTCGAGTAAACAAATTTTCCTAATCTTTCTGTTCAAGCGCCATCTAC”, 0.288.
In the case of “GATGATTGTTCTCCCAGCTGATGAATTACCTGATTCGAGTAAACAAATTTTCCTAATCTTTCTGTTCAAGCGCCATCTAC” it was 0.32; in that of “GATGATTGTTCTCCCAGCTGATGAATTAGATCTCTCGAGTAAACAAATTTTCCTAATCTTTCTGTTCAAGCGCCATCTAC”, 0.358.
To “GATGATTGTTCTCCCAGCTGATGAATTCGGTATGTCGAGTAAACAAATTTTCCTAATCTTTCTGTTCAAGCGCCATCTAC” belongs 2.16; to “GATGATTGTTCTCCCAGCTGATGAATTCCTTAGCTCGAGTAAACAAATTTTCCTAATCTTTCTGTTCAAGCGCCATCTAC”, 0.222; to “GATGATTGTTCTCCCAGCTGATGAATTTATCGATTCGAGTAAACAAATTTTCCTAATCTTTCTGTTCAAGCGCCATCTAC”, 0.535.
In the case of “GATGATTGTTCTCCCAGCTGATGAATTGCTCGAATCGAGTAAACAAATTTTCCTAATCTTTCTGTTCAAGCGCCATCTAC”, the binding signal (RPM ratio (pull-down/input)) came to 0.386.
Take “GATGATTGTTCTCCCAGCTGATGAATTGCCAGTCTCGAGTAAACAAATTTTCCTAATCTTTCTGTTCAAGCGCCATCTAC”: the binding signal (RPM ratio (pull-down/input)) came to 0.608.
To “GATGATTGTTCTCCCAGCTGATGAATTACTTGACTCGAGTAAACAAATTTTCCTAATCTTTCTGTTCAAGCGCCATCTAC” belongs 0.377; to “GATGATTGTTCTCCCAGCTGATGAATTTTCAAGGTCGAGTAAACAAATTTTCCTAATCTTTCTGTTCAAGCGCCATCTAC”, 0.168.
To “GATGATTGTTCTCCCAGCTGATGAATTTGGGCTCTCGAGTAAACAAATTTTCCTAATCTTTCTGTTCAAGCGCCATCTAC” belongs 0.538; to “GATGATTGTTCTCCCAGCTGATGAATTGGTTTTGTCGAGTAAACAAATTTTCCTAATCTTTCTGTTCAAGCGCCATCTAC”, 2.91; to “GATGATTGTTCTCCCAGCTGATGAATTCCTATAGTCGAGTAAACAAATTTTCCTAATCTTTCTGTTCAAGCGCCATCTAC”, 0.316.
To “GATGATTGTTCTCCCAGCTGATGAATTTCAGATCTCGAGTAAACAAATTTTCCTAATCTTTCTGTTCAAGCGCCATCTAC” belongs 0.248; to “GATGATTGTTCTCCCAGCTGATGAATTAAAAGGCTCGAGTAAACAAATTTTCCTAATCTTTCTGTTCAAGCGCCATCTAC”, 0.309; to “GATGATTGTTCTCCCAGCTGATGAATTATTGTGGTCGAGTAAACAAATTTTCCTAATCTTTCTGTTCAAGCGCCATCTAC”, 1.45.
Consider “GATGATTGTTCTCCCAGCTGATGAATTTACAGCTTCGAGTAAACAAATTTTCCTAATCTTTCTGTTCAAGCGCCATCTAC”, for which the binding signal (RPM ratio (pull-down/input)) was found to be 0.558.
To “GATGATTGTTCTCCCAGCTGATGAATTTCTCCTTTCGAGTAAACAAATTTTCCTAATCTTTCTGTTCAAGCGCCATCTAC” belongs 0.245; to “GATGATTGTTCTCCCAGCTGATGAATTGTGTTTTTCGAGTAAACAAATTTTCCTAATCTTTCTGTTCAAGCGCCATCTAC”, 6.66; to “GATGATTGTTCTCCCAGCTGATGAATTGCTATGTTCGAGTAAACAAATTTTCCTAATCTTTCTGTTCAAGCGCCATCTAC”, 1.18.
To “GATGATTGTTCTCCCAGCTGATGAATTTTCTTTATCGAGTAAACAAATTTTCCTAATCTTTCTGTTCAAGCGCCATCTAC” belongs 1.27; to “GATGATTGTTCTCCCAGCTGATGAATTATGCAATTCGAGTAAACAAATTTTCCTAATCTTTCTGTTCAAGCGCCATCTAC”, 5.58; to “GATGATTGTTCTCCCAGCTGATGAATTCAAGATCTCGAGTAAACAAATTTTCCTAATCTTTCTGTTCAAGCGCCATCTAC”, 0.23.
Consider “GATGATTGTTCTCCCAGCTGATGAATTATAGCGGTCGAGTAAACAAATTTTCCTAATCTTTCTGTTCAAGCGCCATCTAC”, for which the binding signal (RPM ratio (pull-down/input)) turned out to be 0.434.
On to “GATGATTGTTCTCCCAGCTGATGAATTAGGCAGCTCGAGTAAACAAATTTTCCTAATCTTTCTGTTCAAGCGCCATCTAC”, for which the binding signal (RPM ratio (pull-down/input)) amounted to 1.13.
To “GATGATTGTTCTCCCAGCTGATGAATTGTTTCTCTCGAGTAAACAAATTTTCCTAATCTTTCTGTTCAAGCGCCATCTAC” belongs 1.47; to “GATGATTGTTCTCCCAGCTGATGAATTCTTTGATTCGAGTAAACAAATTTTCCTAATCTTTCTGTTCAAGCGCCATCTAC”, 0.276; to “GATGATTGTTCTCCCAGCTGATGAATTCACGGTCTCGAGTAAACAAATTTTCCTAATCTTTCTGTTCAAGCGCCATCTAC”, 0.394.
